Measurements: the supplement of paper PMC3334620
In all, about 33,000 sequences were measured (“E-score (-0.5 to 0.5)”: median about -0.012, highest 2% from about 0.27 on). Some of the results follow.

Target: T1, Vhr1 (UniProt P40522)
T1 sequence: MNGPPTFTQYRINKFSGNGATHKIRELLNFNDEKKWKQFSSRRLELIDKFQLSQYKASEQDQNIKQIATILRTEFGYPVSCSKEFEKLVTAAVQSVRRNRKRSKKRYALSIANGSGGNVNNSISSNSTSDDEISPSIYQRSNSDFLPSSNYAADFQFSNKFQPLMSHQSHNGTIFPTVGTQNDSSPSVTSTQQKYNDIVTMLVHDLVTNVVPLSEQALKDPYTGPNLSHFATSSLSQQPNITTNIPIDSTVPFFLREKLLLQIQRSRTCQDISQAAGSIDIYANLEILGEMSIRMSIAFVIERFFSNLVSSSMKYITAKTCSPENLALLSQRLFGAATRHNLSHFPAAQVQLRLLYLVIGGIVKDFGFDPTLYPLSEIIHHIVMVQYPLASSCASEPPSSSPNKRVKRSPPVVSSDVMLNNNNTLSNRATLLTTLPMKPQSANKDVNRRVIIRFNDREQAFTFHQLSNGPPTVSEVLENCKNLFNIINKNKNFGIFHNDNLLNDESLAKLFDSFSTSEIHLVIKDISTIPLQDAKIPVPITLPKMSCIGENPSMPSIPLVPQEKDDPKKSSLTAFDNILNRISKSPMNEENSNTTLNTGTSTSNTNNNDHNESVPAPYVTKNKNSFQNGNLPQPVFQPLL
Test: PBM E-score (8-mer binding enrichment) (E-score (-0.5 to 0.5)); higher = stronger / more preferred TF binding; most listed sequences are background and not binding sites
Settings: protein concentration: 200 nM; construct: GST-full length
Procedure: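 Universal 'all 10-mer' protein binding microarrays (Agilent AMADID 015681) probed with GST-tagged S. cerevisiae TFs (full-length or DBD) made by in vitro transcription/translation (PURExpress), about 100-200 nM. Bound TF was detected with fluorescent anti-GST. Each ungapped 8-mer (which stands for itself and its reverse complement) is scored by the PBM enrichment score (E-score), a modified Wilcoxon-Mann-Whitney statistic from -0.5 to +0.5, computed with the Universal PBM Analysis Suite. Scale: above 0.35 generally sequence-specific binding.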

| Sequence | PBM E-score |
| --- | --- |
| ATAAGAAA | -0.307 |
| ACTAACCG | 0.1 |
| ACCCGAGT | 0.143 |
| ATTTCCCC | -0.2 |
| GATGCACA | 0.0425 |
| GTTGTCGA | -0.0652 |
| ATGATGTA | 0.255 |
| AGCACATA | 0.132 |
| ACTCGGGC | 0.14 |
| AGGTGGTG | 0.0575 |
| CTATAGAA | -0.0997 |
| GATGATCC | 0.0747 |
| CTAACCGC | 0.0744 |
| CCGGAGAG | 0.0707 |
| ATGCTTTC | -0.0177 |
| GGTATTTA | -0.0772 |
| AAAAGAAG | -0.085 |
| ACGGACCG | -0.0579 |
| GAACTTGA | -0.0374 |
| ATTAGCAG | -0.0969 |
| AGTTTCGA | -0.117 |
| CCATTGGC | 0.0849 |
| AGACCTGG | -0.122 |
| TCATTAGA | 0.049 |
| ATTACTAC | -0.105 |

| Sequence | PBM E-score |
| --- | --- |
| TCGCGCCA | 0.00203 |
| ACAGCCGT | -0.0463 |
| CGTAGGAA | -0.077 |
| ATTACCGG | 0.054 |
| TCTAGTAA | -0.132 |
| CATCCTGG | 0.146 |
| ATGGATGG | 0.0901 |
| CGGCTCGA | 0.185 |
| ACAAAGCG | 0.0155 |
| GATTAACA | 0.195 |
| ACGGAGAC | 0.123 |
| GCTAGCGA | -0.0627 |
| AAGTTATA | -0.0484 |
| ACCGAACC | 0.0248 |
| ATGCTAGA | -0.0856 |
| GGCGTATA | 0.0324 |
| TACTGATA | 0.124 |
| AGTCACAC | 0.415 |
| CTTTTTGC | -0.0773 |
| AGATGTAG | 0.0546 |
| ATTTAGAC | -0.138 |
| GCGCGTAA | 0.0198 |
| CTAGTTCA | -0.0839 |
| AGGGATAG | -0.107 |
| AGATCGGC | -0.0848 |

| Sequence | PBM E-score |
| --- | --- |
| AACTTTCA | -0.183 |
| CTGACCGA | 0.12 |
| GCTCTCCA | -0.262 |
| AAAGAACC | -0.0278 |
| GCAGCGTA | -0.0477 |
| AAAGGCCT | -0.366 |
| AACCCCAG | -0.0415 |
| AACTGCGA | -0.0936 |
| ATTTTTCC | -0.211 |
| CTGGAAGA | -0.0674 |
| AACCCCCG | -0.156 |
| GCTGCTGA | 0.127 |
| AGGTGCGA | -0.00031 |
| AGAAAGAA | -0.25 |
| CAAGCTGG | -0.136 |
| TAGATAGA | -0.177 |
| TCATTCGA | 0.072 |
| CCAACGCC | -0.203 |
| ATTGCAAC | 0.0901 |
| AAACCGGG | 0.132 |
| GATGGTGA | 0.188 |
| CCCACCAC | -0.00821 |
| AACCTCCA | -0.132 |
| GACTGCGA | 0.234 |
| GCGGGAAC | -0.0148 |

| Sequence | PBM E-score |
| --- | --- |
| ATGCCTAA | -0.325 |
| CTAACGTC | -0.0791 |
| CGCTGGAG | 0.125 |
| CACGAACG | 0.0646 |
| ACCGCCTG | 0.0926 |
| ATCTACCA | 0.151 |
| GAGTGACA | 0.123 |
| GAGGACTA | 0.097 |
| AGGACACG | -0.00736 |
| AATTATCA | 0.0129 |
| AACTGGAC | -0.0838 |
| ATACGCAA | 0.0132 |
| ACTGGGGA | -0.0871 |
| AGTCTTGA | 0.00019 |
| AAGAAGCG | -0.176 |
| CGATTCAC | 0.144 |
| GAACGAGC | 0.099 |
| AGGGTCGC | 0.0406 |
| AATAAGCA | -0.114 |
| CCGGGCTC | 0.0188 |
| ACGCCAAG | -0.0928 |
| CACGAGGA | 0.0461 |
| CCGAGCTA | -0.085 |
| CATGCAAG | 0.119 |
| AGATGAGC | 0.0292 |

| Sequence | PBM E-score |
| --- | --- |
| TATGTAGA | -0.093 |
| GCACGCAA | -0.116 |
| CGCCTAGC | -0.213 |
| CGCCTACA | 0.0638 |
| AGTAACAA | 0.113 |
| CTACAGAG | -0.0563 |
| GGAATATA | 0.159 |
| ATGGTGGC | 0.0115 |
| GGAACGGA | -0.123 |
| AAAAGTGA | 0.0469 |
| ATATTTAC | 0.0659 |
| CTGCGTCC | -0.0153 |
| CAATCGGG | -0.0442 |
| GGCTTTAA | -0.196 |
| ATCGTGAG | 0.0346 |
| CGCGTCAA | 0.0808 |
| ATACTAAA | -0.0617 |
| AGCCAAAC | 0.118 |
| CGAATCTC | -0.0376 |
| ATCCTGTA | -0.0631 |
| AGCAAATG | -0.00644 |
| GGCATTAC | 0.0696 |
| TAGAGACA | -0.098 |
| GAGATCTC | -0.229 |
| CATCAAAG | -0.0712 |

| Sequence | PBM E-score |
| --- | --- |
| AAACCTTA | -0.0599 |
| AAACTATA | 0.109 |
| ACTACGTG | 0.0775 |
| CAGTCCGC | 0.0926 |
| CACCGTGG | 0.0821 |
| AGCTAAAG | -0.21 |
| GGCTGCGA | 0.12 |
| CCGCTGCC | -0.0547 |
| CAAATACC | 0.0617 |
| ATGCGAGA | -0.285 |
| ACGACGCC | -0.036 |
| GTGATTCA | 0.408 |
| CGGCGGGC | 0.221 |
| GGTAGTTA | 0.0143 |
| ACGCTGGG | -0.122 |
| AGGCAAGG | -0.292 |
| CGGCAGGC | -0.107 |
| ACATATAC | 0.157 |
| ACTGGGAT | 0.0499 |
| ATGGACGG | 0.101 |
| CGTACGAC | -0.0342 |
| CAGATCAC | -0.108 |
| GGAGTCGA | 0.122 |
| CGTAATTA | -0.128 |
| CGATGGAG | 0.157 |

| Sequence | PBM E-score |
| --- | --- |
| CAAGGTCG | 0.00057 |
| AAGAGTCT | 0.00073 |
| CGAGTTAA | 0.0624 |
| CACTGAAG | 0.032 |
| CGGGCCTC | -0.111 |
| AATTGGTA | 0.0224 |
| CCATTAGC | -0.0966 |
| CGATTCAG | 0.12 |
| GCTGTCTA | -0.057 |
| TACCACAA | 0.15 |
| AGCAGGCA | 0.092 |
| AGTCGATC | 0.111 |
| TCCTAACA | -0.065 |
| AAAACACC | -0.0811 |
| ACGACAAA | 0.092 |
| CTTCAGCC | -0.113 |
| ACGTAGCG | -0.156 |
| ATTTTACA | -0.251 |
| CTCCCCTA | 0.0411 |
| CGCTTGCA | 0.0634 |
| CGCCGCAG | 0.211 |
| TAGCCTCA | 0.0353 |
